Data reported in PubChem BioAssay AID1240 (Sanford-Burnham Center for Chemical Genomics, 2008).
The whole screen tested about 50,000 compounds, of which about 800 (1.6%) showed an effect of 50% or more. This is one part of the list.

biological target: Bcl-2-like protein 10 (Homo sapiens) (UniProt Q9HD36); experiment: TR3 peptide-Bcl-B binding displacers, biochemical primary FP assay, phenotype converters (AID 1240); conditions: GST-Bcl-B / FITC-TR3 peptide fluorescence polarization; stronger effect = higher value; compound at 3.75 mg/L;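 also: 0% = Bcl-B with tracer peptide and DMSO and 100% = tracer peptide lacking Bcl-B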
Chain of UniProt Q9HD36 (Q9HD36 whole entry, looked up): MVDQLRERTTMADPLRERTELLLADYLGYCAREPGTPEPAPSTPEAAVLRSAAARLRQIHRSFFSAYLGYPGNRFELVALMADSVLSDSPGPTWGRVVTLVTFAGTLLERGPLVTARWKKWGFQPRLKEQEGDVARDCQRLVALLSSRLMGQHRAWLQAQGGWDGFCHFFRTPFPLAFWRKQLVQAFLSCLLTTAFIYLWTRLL

| SMILES | displacement [%] |
| --- | --- |
| CC1SC(c2cccc(Cl)c2)NC1=O (stereo not drawn) | -2.3 |
| O=C1NC(=O)/C(=C/c2ccccc2[N+](=O)[O-])S1 | 12.2 |
| CCOc1ccccc1C(=O)Nc1cc(S(N)(=O)=O)ccc1C | -3.7 |
| O=C(NCCCO)C(=O)NCc1ccc(Cl)cc1 | 17.3 |
| Cc1cc(NC(=O)c2cccc(Br)c2)ccc1NC(=O)c1ccccc1 | 7.1 |
| Cc1ccc(-c2cc(-c3cc(Cl)ccc3O)[nH]n2)cc1 | -4.3 |
| COc1ccc(/C=C2\SC(=S)N(NC(=O)c3ccccc3[N+](=O)[O-])C2=O)cc1OC | 0.4 |
| Cc1ccn2c(-c3csc(Nc4cccc(C(=O)O)c4)n3)c(C)nc2c1 | -1.1 |
| COc1ccc(C2/C(=C(\O)c3ccc(C)cc3)C(=O)C(=O)N2CCCC(=O)O)cc1OC (stereo not drawn) | -4.6 |
| N/C(=N\c1nc(C(F)(F)F)cc(=O)[nH]1)Nc1ccc(Cl)cc1 | -6.4 |
| Cc1ccc(S(=O)(=O)Nc2ccc3c(c2)oc2ccccc23)cc1 | -13.8 |
| COc1cc(/C=C2/C(=O)NN(c3ccc(C)cc3)C2=O)cc(Br)c1O | -8.4 |
| O=[N+]([O-])c1cc(S(=O)(=O)N2CCN(c3ccccc3)CC2)ccc1Cl | 10.8 |
| COc1ccc(/C=C/C(=O)Nc2sc3c(c2C#N)CC(C)(C)OC3)cc1OC | 41.9 |
| Cc1cc(C)nc(/N=C(/N)Nc2ccc(OCCc3ccccc3)cc2)n1 | 10 |
| Cn1c(/C=N/Nc2nc3ccccc3[nH]2)nc2ccccc21 | -7.4 |
| O=[N+]([O-])c1cccc(CNC2CCCCC2)c1 | 5.2 |
| COC(=O)CSc1nc2sc3c(c2c(=O)n1-c1ccccc1)CC(C)(C)OC3 | -8.4 |
| O=C1CC(N2CCC(Cc3ccccc3)CC2)C(=O)N1c1cc(Cl)cc(Cl)c1 (stereo not drawn) | 1 |
| N/C(=N\OC(=O)c1ccccc1Br)c1ccc(Cl)cc1 | 5.5 |
| CCc1ccc(C2Nc3ccccc3NC3=C2C(=O)CC(c2ccccc2)C3)s1 (stereo not drawn) | 4.8 |
| Cc1cccc(N=C2NC(=O)CS2)c1 | 7.3 |

| SMILES | displacement [%] |
| --- | --- |
| O=C1S/C(=C\c2cccc(Cl)c2)C(=O)N1c1ccc(Cl)cc1 | -3.8 |
| CC(=O)N1CCN(c2ccc([N+](=O)[O-])c(NC3CC3)c2)CC1 | 7.8 |
| COc1ccc(/C=N\N2CCN(c3ccccc3)CC2)cc1 | -0.3 |
| CCN1C(=O)/C(=C\c2ccccc2OS(=O)(=O)c2ccccc2[N+](=O)[O-])SC1=S | 10.9 |
| O=C(Nc1ccccc1C(F)(F)F)c1ccc(OC2CSC2)cc1 | -7.4 |
| COc1cccc(CNCc2ccccc2OC)c1 | 7.7 |
| O=C(Nc1ccc(NC(=O)c2ccc(-c3cccc(Cl)c3)o2)cc1)c1ccccc1 | 21.4 |
| COc1cc(C=O)c(Br)cc1OCc1ccc(Cl)cc1Cl | 5.6 |
| C=CCOc1ccc(/C=C2\C(=O)NC(=O)N(c3ccccc3)C2=O)cc1Br | -16.6 |
| CC(C)CN1C(=O)/C(=C/c2cn(-c3ccccc3)nc2-c2cccs2)SC1=S | 34.6 |
| Cc1ccc(-c2csc(NC(=O)C3C4CCC(C4)C3C(=O)O)n2)cc1 (stereo not drawn) | 1.4 |
| CCOC(=O)c1c(N)sc(C)c1-c1ccc(OCC)cc1 | 13.7 |
| C=CCNC(=O)c1ccccc1C(=O)c1ccccc1 | 0.1 |
| COc1ccc(/C=N/Nc2cc(N3CCOCC3)ncn2)c(OC)c1 | -8.4 |
| CC(C)OC(=O)c1ccc(NC(=O)c2cncc(Br)c2)cc1 | 12.3 |
| COc1ccccc1CNC(=O)COc1cc(C)c(Cl)c(C)c1 | 0.3 |
| O=C(/C=C/c1ccc([N+](=O)[O-])cc1)N1CCN(CCN2C(=O)c3cccc4cccc(c34)C2=O)CC1 | -16 |
| Cc1c(Cl)cccc1-n1ncnc1-c1cccc(Cl)c1 | -12.7 |
| C=CCOC(=O)C1=C(C)N=C2SCCC(=O)N2C1c1ccc(OC)cc1 (stereo not drawn) | 8.3 |
| COc1cc(C2CC3CC2C(C)C3(C)C)ccc1O (stereo not drawn) | 12.4 |
| COc1cc(/C=C2\C(=O)NC(=O)N(c3ccc(F)cc3)C2=O)ccc1OCC(=O)O | -15.1 |
| CC(NC(c1ccccc1)(c1ccccc1)c1ccccc1)C(=O)O (stereo not drawn) | 6.2 |

| SMILES | displacement [%] |
| --- | --- |
| COc1cccc(C(=O)N2CCN(Cc3ccccn3)CC2)c1 | -10.9 |
| O=C(NCCCn1ccnc1)c1ccc(C(=O)NCCCn2ccnc2)cc1 | -8 |
| COc1c(Br)cc2c(cc(C)n2-c2ccccc2)c1OCC(O)CNC(C)C (stereo not drawn) | 1 |
| COc1ccc(N2C(=O)C3C(C2=O)N2C(c4ccco4)C4C(=O)N(c5ccc(OC)cc5)C(=O)C4N2C3c2ccco2)cc1 (stereo not drawn) | -2.5 |
| ON=C(c1nc2ccccc2[nH]1)c1nc2ccccc2[nH]1 | -20.8 |
| COc1ccc([N+](=O)[O-])cc1NC(=O)CCc1ccccc1 | -2.3 |
| CC(OCc1ccccc1)C(NC(=O)OC(C)(C)C)C(=O)NCCc1c[nH]c2ccccc12 (stereo not drawn) | 12.3 |
| Cc1n[nH]c(=S)n(/N=C/c2cc(Cl)ccc2Cl)c1=O | 7.4 |
| O=C1NC(=S)N(c2ccc(F)cc2)C(=O)/C1=C/c1ccc(-c2cccc(C(=O)O)c2)o1 | -66.4 |
| CCOC(=O)C1=C(c2ccccc2)N=c2s/c(=C\c3ccc[nH]3)c(=O)n2C1c1cc(OC)ccc1OC (stereo not drawn) | -11 |
| CCn1c2ccccc2c2cc(CNCCc3ccc(OC)c(OC)c3)ccc21 | 16.8 |
| Cc1ccc2nc(-c3ccc(C)c(NC(=O)c4ccc5ccccc5c4)c3)oc2c1 | -11.3 |
| COc1ccc(C2C(C(C)=O)=C(O)C(=O)N2CC2CCCO2)cc1 (stereo not drawn) | -2 |
| Cc1ccc(N2C=NNC(=O)C2)cc1C | 10.5 |
| Cc1cccc(CC2CC(=O)N(c3cccc(Cl)c3C)C2=O)c1 (stereo not drawn) | 6.6 |
| O=C(Oc1ccc(/C=N/NC(=O)C(O)c2ccccc2)cc1)c1cccs1 (stereo not drawn) | 5.2 |
| CCOP(=O)(OCC)C(NC(=O)Nc1ccc(Cl)cc1)C(N)=O (stereo not drawn) | 2.6 |
| CC1=C(C(=O)Nc2ccc(C)cc2)C(c2cccc3ccccc23)NC(=S)N1 (stereo not drawn) | 2.2 |
| COc1ccc(NC(=O)c2ccccc2Cl)cc1Cl | 12.4 |
| CCc1cc(OCCOCCN(C)CCO)ccc1Cl | 4.8 |
| c1cc2c(cc1C1OCC3(CO1)COC(c1ccc4c(c1)OCO4)OC3)OCO2 (stereo not drawn) | 8.2 |
| NC(=O)c1ccccc1NS(=O)(=O)c1ccc(F)cc1 | -6.6 |

| SMILES | displacement [%] |
| --- | --- |
| Cc1ccc(-c2cc(-c3ccccc3O)nc(NN)n2)cc1 | -18.6 |
| CCOC(=O)/C(C(=O)Nc1cccs1)=C1\NC(C)(C)Cc2ccccc21 | 11.9 |
| CCOC(=O)CSCCOc1ccc(C=O)cc1OC | -4.4 |
| CCCC(=O)c1ccc(N2CCN(C(=O)OCC)CC2)c(F)c1 | -1.7 |
| CC(=O)c1cccc(NC(=O)/C(=C\c2cccnc2)NC(=O)c2ccc(C)cc2)c1 | -7 |
| CCOC(=O)/C(C#N)=C/c1ccc(O)cc1 | -4.7 |
| COc1ccc(-c2cc(C(=O)Nc3ccccc3C(F)(F)F)c3ccccc3n2)cc1 | -6.1 |
| O=C(CC(c1ccccc1)c1ccccc1)NCc1cccnc1 | 0.3 |
| O=C1C2C(C(=O)N1/N=C/c1ccc(O)cc1)C1C=CC2C12CC2 (stereo not drawn) | 3.9 |
| Cc1cc(/C=C2\C(=O)NC(=S)N(c3cccc(Cl)c3)C2=O)c(C)n1-c1cccnc1 | 18.3 |
| COc1ccccc1/C=N/NC(=O)C(=O)N1CCCC1 | 5.5 |
| CN(C)CC(=O)N1c2ccccc2CCc2ccc(NC(=O)c3ccccc3)cc21 | -7.3 |
| O=C(O)c1ccc(-c2ccc(/C=C3\SC(=S)N(c4cccc(C(F)(F)F)c4)C3=O)o2)cc1 | -45.4 |
| COc1ccc(S(=O)(=O)N2CCCCC2)cc1Br | 1.6 |
| COc1ccc(C2=C/C(=C3\OC(=O)c4ccccc43)C(=O)O2)cc1 | -9.3 |
| COC(=O)c1c(NC(=O)COc2ccc(Cl)cc2C)sc2c1CCC2 | 18.6 |
| CCOc1ccc(Cc2c(O)nc(SC)n(-c3ccccc3)c2=O)cc1 | -2 |
| NC1=C(Cl)C(=O)c2c(cccc2[N+](=O)[O-])C1=O | 4.5 |
| CCC(=O)NC(c1ccc(OC)c(OC)c1)c1c(OC(C)=O)ccc2ccccc12 (stereo not drawn) | 10.6 |
| COc1ccccc1NC(=O)CN(Cc1ccccc1)S(=O)(=O)c1ccccc1 | -8.7 |
| NC(=O)c1cc(-c2ccc(Cl)cc2)nc2ccc(Br)cc12 | 6.9 |
| COc1ccc(OCCNc2cc(Cl)ccc2[N+](=O)[O-])cc1 | 17.3 |

| SMILES | displacement [%] |
| --- | --- |
| O=C(c1cccnc1)N1N=C(c2ccc([N+](=O)[O-])cc2)CC1(O)C(F)(F)F (stereo not drawn) | -8.5 |
| O=C(NCCN1CCOCC1)c1cnn2c1NC(c1ccco1)CC2C(F)(F)F (stereo not drawn) | 6.2 |
| Cc1ccc([N+](=O)[O-])cc1-c1ccc(/C=C2/C(=O)NC(=O)N(C)C2=O)o1 | -8 |
| O=C(Oc1ccc(Cl)c(Cl)c1)c1ccc([N+](=O)[O-])cc1 | 0.1 |
| CCc1ccc(CN2CCN(Cc3cc(OC)ccc3O)CC2)cc1 | 4.5 |
| O=c1c2cc3c(=O)n(-c4nc5ccccc5s4)c(=O)c3cc2c(=O)n1-c1nc2ccccc2s1 | 13.1 |
| O=C(COc1ccc2ccccc2c1)NCc1ccc(F)cc1 | 1.4 |
| O=C(c1cccc(Cl)c1)N1CCN(c2ccc(F)cc2)CC1 | 10 |
| COc1cc(C=C2C(=O)NC(=S)NC2=O)cc(Cl)c1OCCOc1ccccc1 | 4.8 |
| CCc1ccc(NCCC(=O)c2ccc(Cl)c(Cl)c2)cc1 | 12.8 |
| COc1ccccc1N1C(=O)NC(=O)C(=Cc2cc(OC)c(O)c([N+](=O)[O-])c2)C1=O | 6.8 |
| CC1CN(C(=O)CCN2C(=O)c3ccccc3C2=O)CC(C)O1 (stereo not drawn) | 13.3 |
| O=C1c2ccc3c4c(ccc(c24)C(=O)N1/N=C/c1ccco1)CC3 | 0.2 |
| CCOC(=O)c1c(-c2ccc(-c3ccccc3)cc2)csc1N | 11 |
| COc1cccc(/C=N/Nc2nc(-c3ccccc3)nc(C)c2C)c1O | -8.4 |
| Cc1cc(C)nc(SCC(=O)Nc2ccccc2[N+](=O)[O-])n1 | -2.3 |
| CCOC(=O)C(=CNc1ccc(C(N)=O)cc1)C(=O)OCC | -4.6 |
| COc1cccc(N=Cc2c(O)n(-c3ccccc3C)c(=O)[nH]c2=O)c1 | 2.1 |
| CCCN1CCC(=NNC(=O)c2cccc3ccccc23)CC1 | -5.7 |
| CCOc1ccc(N/C=C\C(=O)c2ccc3c(c2)OCO3)cc1 | 10.4 |
